Source: article PMC4336329 (PLoS ONE, 2015)
In all, about 310,000 compounds went through this assay and about 2,200 (0.71%) showed an effect of 50% or more. The effect is printed as a negative number. The list shows a part of the results.

Target: human ether-à-go-go-related gene (hERG) potassium channel (human, UniProt Q12809)
Assay: primary screen, population patch clamp on CHO cells stably expressing hERG

Sequence of human ether-à-go-go-related gene (hERG) potassium channel (Q12809 whole entry, looked up): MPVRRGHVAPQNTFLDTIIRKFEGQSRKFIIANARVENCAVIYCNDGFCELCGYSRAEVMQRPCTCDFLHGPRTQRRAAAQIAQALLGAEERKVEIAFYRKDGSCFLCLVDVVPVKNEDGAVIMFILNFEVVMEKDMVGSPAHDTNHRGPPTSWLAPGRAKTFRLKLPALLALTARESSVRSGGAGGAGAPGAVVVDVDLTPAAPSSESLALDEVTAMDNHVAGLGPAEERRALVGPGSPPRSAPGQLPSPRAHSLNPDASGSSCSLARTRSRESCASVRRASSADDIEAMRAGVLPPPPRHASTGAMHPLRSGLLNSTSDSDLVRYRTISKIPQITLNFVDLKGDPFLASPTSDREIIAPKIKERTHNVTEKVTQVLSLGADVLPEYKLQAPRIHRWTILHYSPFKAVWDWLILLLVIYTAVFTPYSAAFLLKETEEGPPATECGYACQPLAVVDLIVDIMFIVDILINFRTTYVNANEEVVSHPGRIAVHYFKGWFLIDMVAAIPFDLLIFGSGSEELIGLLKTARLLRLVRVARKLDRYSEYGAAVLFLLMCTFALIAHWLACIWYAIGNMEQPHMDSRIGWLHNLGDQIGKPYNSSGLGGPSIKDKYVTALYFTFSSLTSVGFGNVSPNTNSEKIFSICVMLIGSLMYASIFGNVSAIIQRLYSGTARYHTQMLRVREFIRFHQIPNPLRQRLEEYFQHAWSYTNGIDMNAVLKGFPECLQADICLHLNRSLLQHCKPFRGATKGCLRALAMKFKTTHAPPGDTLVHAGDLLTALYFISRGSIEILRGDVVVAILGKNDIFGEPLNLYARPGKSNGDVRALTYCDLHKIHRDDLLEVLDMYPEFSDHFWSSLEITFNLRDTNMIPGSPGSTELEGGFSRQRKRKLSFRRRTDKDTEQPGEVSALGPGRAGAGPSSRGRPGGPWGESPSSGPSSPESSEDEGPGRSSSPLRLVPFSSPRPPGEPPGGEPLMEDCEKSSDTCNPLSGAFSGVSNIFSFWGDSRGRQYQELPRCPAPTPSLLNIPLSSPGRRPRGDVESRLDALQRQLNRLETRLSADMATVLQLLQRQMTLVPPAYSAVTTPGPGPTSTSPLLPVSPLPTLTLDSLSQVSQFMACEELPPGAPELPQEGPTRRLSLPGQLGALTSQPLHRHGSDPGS

Compared with `CCOC(=O)C1CCN(C(=O)CCS(=O)(=O)c2ccc3c(c2)CCN3C(C)=O)CC1`, `CC1Cc2cc(S(=O)(=O)N3CCC(C(=O)NCc4ccco4)CC3)ccc2N1C(=O)C1CCC1` (centres unmarked) is higher in “hERG current change (%, negative = inhibition) at 1uM” value: 17.6% for the first, 22.5% for the second.

First: CCOc1ccc(-n2ccnc(SCC(=O)NCc3cccc(OC)c3)c2=O)cc1
Second: Cc1ccc(CNC(=O)COc2ccc(C(=O)c3ccc(F)cc3)cc2)cc1
The “hERG current change (%, negative = inhibition) at 1uM” value of the first is lower: 6.35% for the first, 9.34% for the second.

Going from `O=C(c1cc2c(s1)CCCC2)N1CCN(c2ccccc2)CC1` to `O=C(CCn1c(=O)sc2ccccc21)NC1CCCCC1`, the “hERG current change (%, negative = inhibition) at 1uM” value rises from 10.9% to 12.2%.

First: COc1ccc(NC2CC(=O)N(C(C)C)C2=O)cc1 (centres unmarked)
Second: COc1ccc(S(=O)(=O)N2CCCC2C(=O)n2nc(C)cc2C)cc1 (centres unmarked)
The “hERG current change (%, negative = inhibition) at 1uM” value of the first is higher: 14.8% for the first, 3.7% for the second.

Going from `CCN(CC)CC#CCC(O)(c1ccccc1)C1CCCCC1.Cl` (centres unmarked) to `CNC[C@H](CC1CCCCC1)NC[C@H](CO)NCC1(c2ccccc2)CC1`, the “hERG current change (%, negative = inhibition) at 1uM” value rises from -3.04% to 16.5%.

First: Cn1cnnc1SCc1ccc(C(=O)NN)cc1
Second: COc1ccc(C(=O)CSc2nnc(-c3ccco3)n2C)cc1
The “hERG current change (%, negative = inhibition) at 1uM” value of the first is lower: -3.34% for the first, 7.43% for the second.

First: COc1cc(C(=O)Nc2cccc(-c3nc4cc(C)ccc4o3)c2)cc(OC)c1OC
Second: COc1ccc(OC)c(-c2cc(C(=O)Nc3c(C)nn(Cc4ccccc4Cl)c3C)no2)c1
The “hERG current change (%, negative = inhibition) at 1uM” value of the first is higher: 10.6% for the first, 8.79% for the second.

Going from `COc1ccc(CNc2nc3ccccc3n2C)c(OC)c1` to `COc1ccc2c(-c3ccccc3)cc(SCC(=O)N(C)C3CCS(=O)(=O)C3)nc2c1` (centres unmarked), the “hERG current change (%, negative = inhibition) at 1uM” value falls from -3.26% to -13.2%.

First: CCc1c(C)c2ccc(OCC(=O)N(C)C)c(C)c2oc1=O
Second: COc1ccc(NC(=O)COC(=O)c2cc(C)oc2C)cc1OC
The “hERG current change (%, negative = inhibition) at 1uM” value of the first is lower: 5.4% for the first, 11.5% for the second.

Going from `O=C1CN(CC(=O)Nc2cccc(Cl)c2Cl)c2ccccc2N1` to `CS(=O)(=O)N(CC(=O)N1CCc2ccccc2C1)c1ccc(Cl)cc1F`, the “hERG current change (%, negative = inhibition) at 1uM” value falls from 7.89% to 5.07%.

First: Cc1c2c(nc3ccccc13)CC(C)(C)CC2=O.Cl
Second: CC1C/C(=N/Nc2nc3ccccc3[nH]2)CC(C)(C)C1 (centres unmarked)
The “hERG current change (%, negative = inhibition) at 1uM” value of the first is higher: 6.54% for the first, 2.13% for the second.

Going from `COc1ccc(C)cc1NC(=O)CCNS(=O)(=O)c1cccc(C(F)(F)F)c1` to `O=C1CCC(C(=O)Nc2cccc(C(F)(F)F)c2)N1` (centres unmarked), the “hERG current change (%, negative = inhibition) at 1uM” value rises from 7.5% to 11.1%.

First: NC(=S)Nc1cc2ccccc2c2ccccc12
Second: CCOC(=O)c1ccccc1N=Cc1c(O)c2ccccc2oc1=O
The “hERG current change (%, negative = inhibition) at 1uM” value of the first is lower: 4.88% for the first, 19.3% for the second.

First: COc1ccc(CN(CC(=O)NC(C)C)C(=O)CCC(=O)Nc2nccs2)cc1
Second: COc1ccc(CC(=O)Nc2ccc(-c3csc(C)n3)cc2)cc1
The “hERG current change (%, negative = inhibition) at 1uM” value of the first is higher: 11.9% for the first, 0.945% for the second.

Going from `CN(NC1OC(=O)c2ccccc21)c1ccc(C(F)(F)F)cc1[N+](=O)[O-]` (centres unmarked) to `O=C1c2ccccc2CC1Sc1nnc(-c2ccncc2)o1` (centres unmarked), the “hERG current change (%, negative = inhibition) at 1uM” value falls from 19% to -1.21%.

Compared with `CC(=O)Nc1ccc(NC(=O)c2cc(-c3cc(C)cc(C)c3O)n[nH]2)cc1`, `CC(=O)Nc1ccc(S(=O)(=O)NNC2=NS(=O)(=O)c3ccccc32)cc1` is lower in “hERG current change (%, negative = inhibition) at 1uM” value: 14.6% for the first, 9.28% for the second.

First: COC(=O)c1c(NC(=O)CSc2nc3nc(C)cc(C)n3n2)sc(C)c1C
Second: C=CCNC(=O)c1onc(CCl)c1C(=O)OC
The “hERG current change (%, negative = inhibition) at 1uM” value of the first is higher: 11.2% for the first, 10.7% for the second.

First: N#Cc1ccc(-c2ccc(OCC(O)CN3CCCCC3)cc2)cc1 (centres unmarked)
Second: Cc1ccc(NC(=O)CSCC(=O)Nc2cc(Cl)ccc2N2CCOCC2)cc1
The “hERG current change (%, negative = inhibition) at 1uM” value of the first is lower: -52.1% for the first, 9.6% for the second.

Going from `CCn1c(O)c(/C=C2\C=Nc3ccccc32)sc1=O` to `Cc1cc(=O)[nH]c(SCc2nc3ccccc3n2Cc2ccccc2)n1`, the “hERG current change (%, negative = inhibition) at 1uM” value falls from 11.4% to 4.81%.

First: CC1CN(C(=O)c2cc3cc([N+](=O)[O-])ccc3oc2=O)CC(C)O1 (centres unmarked)
Second: COc1cc2c(cc1OC)CN(CC(=O)Nc1cccc([N+](=O)[O-])c1)CC2
The “hERG current change (%, negative = inhibition) at 1uM” value of the first is higher: 3.81% for the first, 2.77% for the second.

Going from `CN1/C(=C\C=C\C2=[N+](C)c3ccc4ccccc4c3C2(C)C)C(C)(C)c2ccccc21.[O-][Cl+3]([O-])([O-])[O-]` to `O=S(=O)(Nc1ccc2c(c1)nc1n2CCN(Cc2ccccc2)C1)c1ccc(Cl)cc1`, the “hERG current change (%, negative = inhibition) at 1uM” value rises from -43.6% to 14.8%.

Compared with `CC1(C)CC(=O)C2=C(C1)Nc1ncnn1C2c1ccccn1` (centres unmarked), `Cc1nn2c(CN(C(=O)CN3CCOCC3)c3ccccc3)nnc2c2ccccc12` is lower in “hERG current change (%, negative = inhibition) at 1uM” value: 13.2% for the first, 4.2% for the second.

First: CCC(c1nnc(SCC(=O)NNC(=O)c2ccccc2)n1Cc1ccccc1)N(C)C (centres unmarked)
Second: O=C(CCc1ccccc1)NNC(=O)c1ccc(NC(=O)c2ccccc2)cc1
The “hERG current change (%, negative = inhibition) at 1uM” value of the first is higher: 16.7% for the first, 2.85% for the second.

Going from `CCC1CCCCN1CCN1C(=O)C2C(C(=O)Nc3cccc(OC)c3)C3C=CC2(O3)C1C(=O)NC1CCCCC1` (centres unmarked) to `CCCS(=O)(=O)N1CCCC(C(=O)NC2CCCCC2)C1` (centres unmarked), the “hERG current change (%, negative = inhibition) at 1uM” value falls from 8.14% to 7.22%.

Compared with `O=[N+]([O-])c1cccc(-c2ccc(/C=N/NC(=S)NCc3ccco3)o2)c1`, `O=[N+]([O-])c1ccc(/C=N/NC(=S)Nc2ccccc2)o1` is lower in “hERG current change (%, negative = inhibition) at 1uM” value: 14.7% for the first, 13.6% for the second.

First: CCCCN1C(=O)N(c2ccc(Cl)cc2)C(C)(O)CC1(C)C (centres unmarked)
Second: O=C(NCCCN1CCCC1=O)C1CCN(S(=O)(=O)c2cccc(Cl)c2Cl)CC1
The “hERG current change (%, negative = inhibition) at 1uM” value of the first is higher: 12.7% for the first, -1.96% for the second.

Compared with `Cc1cccc(N2CCN(C(=O)c3cccc(N4C(=O)C5C6C=CC(C6)C5C4=O)c3)CC2C)c1` (centres unmarked), `C=CCn1c(N2CCCCCC2)nc2c1c(=O)n(C)c(=O)n2C` is lower in “hERG current change (%, negative = inhibition) at 1uM” value: 14.1% for the first, 4.47% for the second.

Going from `COc1ccc(S(=O)(=O)NC2CCCCC2)cc1F` to `CCCCCCNCC1OCc2ccccc2CO1`, the “hERG current change (%, negative = inhibition) at 1uM” value falls from 5.51% to -7.32%.
